# From the supplement of paper PMC3334620
# Whole data set: some 33,000 sequences, median “E-score (-0.5 to 0.5)” near -0.016, cut for the highest 2% near 0.32. The list shows a part of the results.
# Biological target: T1, Stp1 (UniProt B3LFK1)
# T1 sequence: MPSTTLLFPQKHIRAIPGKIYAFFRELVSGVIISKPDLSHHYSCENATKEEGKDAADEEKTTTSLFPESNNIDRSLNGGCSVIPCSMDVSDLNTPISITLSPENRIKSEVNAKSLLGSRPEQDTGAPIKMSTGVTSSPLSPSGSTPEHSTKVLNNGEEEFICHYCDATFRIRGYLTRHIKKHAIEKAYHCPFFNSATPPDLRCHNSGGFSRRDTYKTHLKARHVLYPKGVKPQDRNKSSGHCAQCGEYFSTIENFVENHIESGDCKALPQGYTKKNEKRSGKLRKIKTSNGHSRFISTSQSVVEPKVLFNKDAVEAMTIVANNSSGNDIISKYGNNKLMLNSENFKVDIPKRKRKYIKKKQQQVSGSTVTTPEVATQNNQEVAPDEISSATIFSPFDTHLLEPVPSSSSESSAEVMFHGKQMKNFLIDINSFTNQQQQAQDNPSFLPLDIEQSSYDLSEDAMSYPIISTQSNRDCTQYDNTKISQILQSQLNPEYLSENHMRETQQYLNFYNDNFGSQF
# Test: PBM E-score (8-mer binding enrichment) (E-score (-0.5 to 0.5)); higher = stronger / more preferred TF binding; most listed sequences are background and not binding sites
# Conditions: protein concentration: 200 nM; construct: GST-full length
# Procedure, shortened: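 Bound GST-tagged yeast transcription factors, applied at about 100-200 nM to double-stranded universal all-10-mer Agilent arrays, were detected with fluorescent anti-GST. Scans were normalised with masliner. A modified Wilcoxon-Mann-Whitney statistic, the E-score, was assigned to each ungapped eight-base word pooled with its reverse complement by the Universal PBM Analysis Suite.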
row,Sequence,PBM E-score
1,CAATCCCG,0.0775
2,GAAGCACA,0.0238
3,ACCCCGGA,-0.193
4,TGTACACA,0.02
5,GCACTCAA,-0.0729
6,CGCATAAA,0.149
7,ATATCACG,0.0824
8,ATTAAGAC,-0.0306
9,CCTGATTC,-0.117
10,CTGACAAA,-0.0186
11,AAAGGATT,-0.109
12,CAACCACA,0.018
13,AAAGTGCT,0.0147
14,AAAAGGCA,0.359
15,AGCACCGA,0.0493
16,ATACTGGA,0.0791
17,TCCAATAA,0.124
18,AACGTACT,0.105
19,CGCCCCGC,0.221
20,ACATAGAC,-0.133
21,GACTGCAA,-0.203
22,ACACATCC,-0.0264
23,ATAGCCTG,-0.192
24,AAGCCCAG,-0.246
25,AAGGCAAT,0.253

row,Sequence,PBM E-score
1,GGTGTTGA,-0.197
2,CACCTGCG,0.0421
3,ATATTGGC,-0.0622
4,AAGCACCT,-0.0394
5,GCATAAAA,0.165
6,CTCGGCAG,0.117
7,AAGTGCGT,-0.0479
8,CCGGGTGA,-0.0814
9,ATGTGAGC,-0.14
10,TCAGGTCA,-0.127
11,AAGATAGC,-0.138
12,AAGCTTTG,-0.24
13,ACTCGTGA,0.00227
14,AACGTTCG,-0.0547
15,CGTCCCGC,-0.0544
16,ACTTTAAT,0.111
17,ATGCAGTA,0.0835
18,ATCCGCTG,-0.127
19,AACTTCCG,-0.125
20,GAAAGAGA,-0.135
21,CTTCTAGA,-0.0372
22,ACCGTCCC,-0.184
23,GTATTCAA,0.187
24,AACAGAAT,-0.0815
25,ACGGAGCG,0.0847

row,Sequence,PBM E-score
1,ACACTGCT,-0.0685
2,CTCTCCGA,-0.00825
3,GTACCCGA,-0.312
4,CTAAATCA,0.0365
5,AGAAATAG,0.00058
6,GATACACA,-0.0121
7,CATTTTGG,0.114
8,AGGTTCTG,-0.137
9,CCTACATA,-0.12
10,GGGTCTGA,-0.381
11,AGTCGAAA,-0.146
12,GTGGCATA,0.0347
13,GCCCGTCC,-0.18
14,ACTTCTAA,0.0244
15,ACGGTACG,0.0976
16,TACTTGCA,0.0312
17,TGCCAGAA,0.0129
18,GAGAAGAA,-0.0998
19,AGCGATTG,-0.0941
20,ACTGAGAG,-0.0514
21,ATATGCCG,0.347
22,AGTAGCTC,-0.252
23,GACAGTCA,-0.127
24,GTAAATAA,0.0833
25,TAGTTTCA,0.107

row,Sequence,PBM E-score
1,CACAGACG,-0.044
2,AGGACATA,-0.0087
3,GTATCCTA,-0.143
4,GACATAAA,0.16
5,GTCCTGTA,-0.121
6,ACTGGACT,-0.208
7,GGAACTCC,-0.0296
8,TACATGAA,-0.0242
9,CACCTCGG,0.0783
10,CTACGTTA,0.114
11,GTTGTTCA,0.0242
12,TAGTACTA,0.218
13,ACCGCCGG,-0.0408
14,GAATTAAA,-0.0221
15,ATTAGGTC,0.0664
16,AGCACTTA,-0.152
17,GCCTGTGA,-0.193
18,GTCGTCAC,-0.0794
19,ACGGTGAA,0.122
20,CTAGATCC,-0.0999
21,CCTAAACC,-0.261
22,CGACACAG,0.153
23,AGCATGCT,-0.322
24,CCCAACAA,0.0569
25,ATTATTAG,0.057

row,Sequence,PBM E-score
1,GGTCTCAA,-0.0324
2,CTAAACCC,-0.146
3,GGTCGTCA,-0.175
4,AACTACCA,-0.116
5,CACCACGG,-0.12
6,AAGCTTAA,-0.00455
7,GCTCTGCA,-0.182
8,CACATACA,0.114
9,ATTTTGGG,0.163
10,CAAACTTA,0.174
11,CCACGGAG,0.159
12,AAGCTAAG,-0.136
13,TCCAAGAA,-0.018
14,CACCCAGG,-0.168
15,TTCTCAAA,0.256
16,CCAGTTTC,-0.167
17,ATATATTG,-0.0406
18,GAGCTGAA,-0.254
19,AATCACGC,0.0793
20,ATTGGGCG,0.0623
21,CTATTTAC,0.0293
22,TCCCGCCA,-0.224
23,GGCTTATA,-0.0671
24,ACCGAGTA,-0.195
25,TATTGCGA,0.165

row,Sequence,PBM E-score
1,CTGGTATA,-0.172
2,ATACCTAT,-0.0286
3,ATAGAGGG,-0.13
4,ACTTCTCC,-0.269
5,ACTAAGAT,0.163
6,TGGTAAAA,0.15
7,GCGAGTGA,0.11
8,AACATCAA,0.101
9,CGTAGGTC,-0.356
10,AATGCAAG,0.0552
11,CGTCTCAC,0.0579
12,CGAGAGAC,-0.178
13,CAATCCGC,0.0215
14,GAGTCTGA,-0.206
15,ATTTGTAC,-0.035
16,CATAGACA,0.0911
17,AGCGGCCC,-0.00454
18,AAATGCGT,0.00095
19,TCATGTAA,0.0364
20,ACTACAGT,0.0222
21,CAAGCCTG,-0.17
22,GCGTTCAC,0.0183
23,ATGTTGCC,0.269
24,CATCACGC,-0.0336
25,ATGCTTAA,-0.0124

row,Sequence,PBM E-score
1,AAGCTACA,0.00573
2,AAGATTAA,0.084
3,GAAACCTA,-0.22
4,GACCCTTA,-0.196
5,CATTCCTC,-0.115
6,AGCCCAGC,-0.159
7,ACAGGGAA,-0.0492
8,AATTGTAA,0.113
9,TGTTACAA,0.166
10,GTACTCGA,-0.0712
11,GAGATCTA,-0.202
12,CATATGAA,0.118
13,GGAGCTAC,-0.0121
14,AGAGTCTG,-0.255
15,ACGCTCGC,-0.0463
16,GTCCACGA,-0.00812
17,AGCTAATC,0.108
18,TAGCCAGA,0.0735
19,CATAACAG,0.222
20,CTTAAAGA,0.0788
21,AGGAACGG,0.228
22,ATTAACAC,0.117
